# Experimental data published in PubChem BioAssay AID686978 (National Center for Advancing Translational Sciences (NCATS), 2013).
# Screen size: about 420,000 compounds; about 64,000 (15%) were called active. Inconclusive means that the source gave no clear call. Such entries were picked first, then a sample of the others. Calls come from the whole dose curve; as a rule, active = well fitted inhibition curve with a large enough effect; inconclusive = small, poorly fitted or top-dose-only effect; inactive = flat fitted curve, though single readings scatter. No potency is given beside an inconclusive call; the fits are too rough.
# Assay: qHTS for Inhibitors of human tyrosyl-DNA phosphodiesterase 1 (TDP1): qHTS in cells in absence of CPT; note: nearly all actives have a fitted effect of over 55% in size
# Conditions: DT40 Tdp1-/- hTDP1 cells, no CPT, ATP luminescence, 48 h; activity change, negative = growth inhibition: at 46.2 µM (top of the series) unless noted
# Outline: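 Chicken DT40 Tdp1-/- cells stably complemented with human TDP1 were seeded at 400 cells/well with DMSO in place of 20 nM camptothecin. After compound pinning, cells grew at least 48 hr at 37 °C; viability read by CellTiter-Glo luminescence.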
# % is set by controls: 0 for no effect and ±100 for the full control effect; potency is the fitted concentration of half-maximal effect; tags give direction and shape of the fitted curve.
Structure (SMILES),Potency,"activity change, negative = growth inhibition"
CC(/C=C1\SC(=S)N(CC(=O)N2CCN(c3ccccc3)CC2)C1=O)=C\c1ccccc1,active: 20.6 µM,
O=C(C[C@H]1C/C=C\CCCCC(=O)OC[C@H]2CCCN2C1=O)N[C@H](CO)Cc1ccccc1,"inconclusive [inhibitor, single point]",
CCCCOc1ccc(C(=O)OCC(=O)Nc2cc(C)c(C)cc2[N+](=O)[O-])cc1,,inactive: -12.2%
Cc1nc2ccsc2c(=O)n1-c1cccc(Cl)c1,,inactive: -20%
Cc1ccc(C(=O)C(C)OC(=O)C2=COCCO2)cc1C (configuration not stated),,inactive: -18.6%
CC(=O)Nc1cccc(NS(=O)(=O)Cc2ccc(Cl)cc2)c1,,inactive: -13.3%
CCOC(=O)c1sc(NC(=O)Nc2ccc(Cl)cc2)nc1C,active: 23.1 µM,
O=C(NNC(=O)c1ccccc1OCc1ccccc1)c1ccccc1F,,inactive: -18.3%
Cc1cc(C)cc(-n2ncc3c2CCCC3NC(=O)CN2CCCCC2=O)c1 (configuration not stated),,inactive: 1.67%
COc1ccc(OC)c(NC(=O)CSc2nnc(CNC(=O)c3ccco3)o2)c1,,inconclusive: -31.5% [inhibitor]
O=C(CN1C(=O)CNC1=O)Nc1cc(Cl)cc(Cl)c1,,inactive: 10.7%
C=CCNC(=O)c1cccc2c1C(=O)c1ccc(N3CCOCC3)cc1S2(=O)=O,"inconclusive [inhibitor, single point]",
CCc1ccccc1N=C1S/C(=C/c2ccccc2OCC(=O)N2CCOCC2)C(=O)N1C,"inconclusive [inhibitor, partial curve, poor fit]",
Cc1ccc(S(=O)(=O)Nc2ccc3nc(N)sc3c2)cc1,active: 11.6 µM,
CN1/C(=C\C=N\O)C(C)(C)c2ccccc21,,inactive: -25.3%
O=C(c1cccc(S(=O)(=O)NCc2ccccc2)c1)N1CCCC(C(F)(F)F)C1 (configuration not stated),"inconclusive [inhibitor, partial curve, poor fit]",
CCCCNC(=O)C1C(c2ccc(C(F)(F)F)cc2)=Nc2ccccc2N1C(=O)c1cccc2ccccc12 (configuration not stated),"inconclusive [inhibitor, single point]",
CNC(=O)c1ccsc1NC(=O)C1CCN(S(=O)(=O)c2cccs2)CC1,"inconclusive [inhibitor, single point]",
CC(=O)Oc1cc2c(C(=O)NCCN3CCOCC3)c(C)oc2c2ccccc12,active: 16.4 µM,
Cc1ccc(C(=O)NC(C)CCc2ccccc2)cc1S(=O)(=O)N1CCOCC1 (configuration not stated),"inconclusive [inhibitor, single point]",
CCCc1nn2c(=O)cc(COC(=O)c3cccc(NC(=O)COc4ccccc4C)c3)nc2s1,active: 18.4 µM,
O=C(c1ccco1)N1CCN(Cc2nc3ccc([N+](=O)[O-])cc3c(=O)n2-c2ccccc2F)CC1,active: 8.2 µM,
CC(C)(C)C1CCC(=NNc2nc3ccccc3[nH]2)CC1 (configuration not stated),"inconclusive [inhibitor, single point]",
CC1C(c2ccccc2)N(C)C(c2ccccc2)CC1(O)c1ccc(F)cc1 (configuration not stated),"inconclusive [inhibitor, single point]",
CCN(c1ccc2c(c1)OCO2)S(=O)(=O)c1cc(Br)cc2c1N(C(=O)C1CC1)CC2,active: 25.9 µM,
C#CCOC(=O)CCCC(=O)NCCCCCCCC,"inconclusive [inhibitor, single point]",

Structure (SMILES),Potency,"activity change, negative = growth inhibition"
CCOC(=O)c1cnc2ccc(C)cc2c1Sc1ccc(F)cc1,"inconclusive [inhibitor, single point]",
O=C(NCCc1ccccc1)c1cnc2sc(N3CCCC3)nn2c1=O,active: 20.6 µM,
CCc1cc(-c2cnnn2CCc2c[nH]c3ccccc23)ccc1-c1cn(CC(C)C)nn1,"inconclusive [inhibitor, single point]",
NCCCC[C@H]1CN=C(N)N1CCC12CC3CC(CC(C3)C1)C2,"inconclusive [inhibitor, single point]",
COc1cc(N(C)C)c(OC)cc1/C=C/c1ccnc2ccccc12,active: 10 µM,
O=C(NCc1cccnc1)c1csc([C@H]2C[C@H](O)[C@@H](CO)O2)n1,,inactive: 7.3%
COc1ccc(C=C(C(=O)O)c2ccc(OC)cc2)cc1,,inactive: 6.87%
CC1CCN(C(=O)C(Cc2ccccc2)n2cccc2)CC1 (configuration not stated),"inconclusive [inhibitor, single point]",
Cc1cccc(CCNC(=O)C2CCN(S(=O)(=O)c3cccc4cccnc34)CC2)c1,"inconclusive [inhibitor, partial curve]",
Cc1ncc(CO)c(/C=N/NC(=S)Nc2ccc(C(C)C)cc2)c1O,active: 20.6 µM,
CC(=O)c1c(C)nc2nc(-c3ccccc3)nn2c1C,,inactive: -8.36%
CN(CC(=O)Nc1ccc(F)c(F)c1F)C(=O)c1ccc(N2CCCC2=O)cc1,,inactive: -9.65%
COc1ccc(CCNC(=O)c2csc3c2CCCC3)cc1,"inconclusive [inhibitor, partial curve]",
COc1ccc(N(C(=O)c2cccnc2)S(=O)(=O)c2ccc3c4c(cccc24)C(=O)N3C)cc1,"inconclusive [inhibitor, single point]",
CCCCOc1ccc(C(=O)N2CCN(CCc3ccncc3)CC2)cc1,"inconclusive [inhibitor, partial curve]",
CCCCN1C(=O)c2ccc(C(=O)Nc3c(N)n(CCCC)c(=O)n(C)c3=O)cc2C1=O,,inactive: -6.36%
COC(=O)C1=C(CS(=O)(=O)c2cc(Cl)ccc2OC)NC(=O)NC1c1ccccc1 (configuration not stated),"inconclusive [inhibitor, single point]",
CCCCn1c(=O)[nH]c(=O)c2c1nc(-c1ccc(OCCC)c(OCC)c1)n2CCOC,"inconclusive [inhibitor, single point]",
CC(C)n1c(=O)nc(-c2ccccc2)c2cc3c(cc21)OCO3,"inconclusive [inhibitor, single point]",
Cn1cnc2c(NCc3ccccc3)nc(Cl)nc21,,inactive: -15.7%
COCc1cccc(-c2csc(C(O)c3cccc(OC)c3)n2)c1 (configuration not stated),"inconclusive [inhibitor, single point]",
Cc1ccc(/C=N/NC(=O)c2cccs2)o1,,inactive: -1.73%
O=C(Nc1ccc(-c2n[nH]c(=S)o2)cc1)c1ccccc1Cl,,inactive: -20.2%
CCCCCCCCC(=O)NCc1cc(OC)c(O)cc1I,"inconclusive [inhibitor, single point]",
O=C(COc1cccc(Cl)c1)Nc1ccc2c(c1)CCC2,,inactive: -12.7%
COCCC(=O)N1CCC(Oc2ccc(C(=O)NCc3nccn3C)cc2)CC1,,inactive: -1.63%

Structure (SMILES),Potency,"activity change, negative = growth inhibition"
CN(C(=O)COc1cc(=O)n(C)c2ccccc12)c1ccc(Br)cc1,,inactive: 3.81%
COCCCNC(=O)c1oc2c(c1C)-c1nn(Cc3cccc(Cl)c3)cc1CC2,active: 18.4 µM,
Cc1nn(-c2ccccc2)nc1C(=O)Nc1ccc2c(c1)OCCO2,,inactive: -9.39%
O=C(CCNC(=O)C1CCN(S(=O)(=O)c2ccccc2)CC1)NC1CC1,,inactive: 7.77%
CCOc1cc(/C=C2\CCCC(C(=O)C(F)(F)F)=C2O)ccc1O,active: 23.1 µM,
Cc1cc(F)ccc1S(=O)(=O)NCC(c1ccco1)S(=O)(=O)c1cccs1 (configuration not stated),"inconclusive [inhibitor, full curve, poor fit]",
CC1Cc2cc(S(=O)(=O)N3CCN(c4ccccc4F)CC3)ccc2N1C(=O)C1CCC1 (configuration not stated),,inactive: -13.4%
O=C(Nc1ccccc1)C(Cc1ccccc1)c1ccccc1 (configuration not stated),,inactive: -23.4%
CCC(CC)c1nc(C#N)c(NCc2ccccc2)o1,active: 20.6 µM,
COc1ccc(C(=O)N2CCC3(CCN(C)CC3)CC2)cc1,,inactive: 7.28%
CCOC(=O)C1CCCN(/C=C2\SC(=S)N(CC)C2=O)C1 (configuration not stated),"inconclusive [inhibitor, partial curve]",
O=C(CCn1nc(-c2ccc(Cl)cc2)c2ccccc2c1=O)Nc1cccnc1,"inconclusive [inhibitor, single point]",
CC1(C)Oc2ccc3ccc(=O)oc3c2/C(=C/Nc2ccccc2)C1=O,,inactive: -28%
C[C@@H]1CN([C@H](C)CO)S(=O)(=O)c2ccc(C#C[C@@H](C)O)cc2O[C@@H]1CN(C)Cc1ccc(-c2ccccc2)cc1,active: 6.51 µM,
CCCCc1c(-c2ccccc2F)ncn1CCc1ccccc1OC,active: 16.4 µM,
CCOC(=O)C(C#N)=CN1CCN(C(=O)CCCl)c2ccccc21,"inconclusive [inhibitor, single point]",
CCN1CCN(S(=O)(=O)c2ccc3c(c2)NC(=O)CS3)CC1,,inactive: 21.2%
Cc1ccccc1Nc1nc(N)nc(CSCc2c(C)noc2C)n1,"inconclusive [inhibitor, partial curve]",
COC(=O)c1sccc1NC(=O)c1ccc(OC)cc1OC,"inconclusive [inhibitor, single point]",
COc1ccc(CNc2oc(-c3ccccc3)nc2C#N)cc1,,inactive: -23.8%
Cc1ccnc(SCc2ccc(C(=O)O)cc2)n1,"inconclusive [inhibitor, single point]",
CCOC(=O)C1CCCN(C(=O)COc2ccc(N(C)S(=O)(=O)c3ccc(C)cc3)cc2)C1 (configuration not stated),"inconclusive [inhibitor, partial curve]",
COc1cc(NS(=O)(=O)c2ccc3c(c2)CCN3S(C)(=O)=O)cc(OC)c1,active: 5.17 µM,
CN(C)c1ccc(CNc2nc3ccccc3n2C)cc1,"inconclusive [inhibitor, single point]",
Cc1cc2nnc(SCC(=O)Nc3ccc(F)c(Cl)c3)n2c2ccccc12,"inconclusive [inhibitor, single point]",
